Source: article PMC4336329 (PLoS ONE, 2015)
The whole screen tested about 310,000 compounds, of which about 14,000 (4.5%) showed an effect of 50% or more. The effect is printed as a negative number. Some of the results follow.

Molecular target: human ether-à-go-go-related gene (hERG) potassium channel (human, UniProt Q12809)
Experiment: primary screen, population patch clamp on CHO cells stably expressing hERG
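Further: peak tail current of the secondary pulse compared with the same well before compound.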

Chain of human ether-à-go-go-related gene (hERG) potassium channel (Q12809 whole entry, looked up): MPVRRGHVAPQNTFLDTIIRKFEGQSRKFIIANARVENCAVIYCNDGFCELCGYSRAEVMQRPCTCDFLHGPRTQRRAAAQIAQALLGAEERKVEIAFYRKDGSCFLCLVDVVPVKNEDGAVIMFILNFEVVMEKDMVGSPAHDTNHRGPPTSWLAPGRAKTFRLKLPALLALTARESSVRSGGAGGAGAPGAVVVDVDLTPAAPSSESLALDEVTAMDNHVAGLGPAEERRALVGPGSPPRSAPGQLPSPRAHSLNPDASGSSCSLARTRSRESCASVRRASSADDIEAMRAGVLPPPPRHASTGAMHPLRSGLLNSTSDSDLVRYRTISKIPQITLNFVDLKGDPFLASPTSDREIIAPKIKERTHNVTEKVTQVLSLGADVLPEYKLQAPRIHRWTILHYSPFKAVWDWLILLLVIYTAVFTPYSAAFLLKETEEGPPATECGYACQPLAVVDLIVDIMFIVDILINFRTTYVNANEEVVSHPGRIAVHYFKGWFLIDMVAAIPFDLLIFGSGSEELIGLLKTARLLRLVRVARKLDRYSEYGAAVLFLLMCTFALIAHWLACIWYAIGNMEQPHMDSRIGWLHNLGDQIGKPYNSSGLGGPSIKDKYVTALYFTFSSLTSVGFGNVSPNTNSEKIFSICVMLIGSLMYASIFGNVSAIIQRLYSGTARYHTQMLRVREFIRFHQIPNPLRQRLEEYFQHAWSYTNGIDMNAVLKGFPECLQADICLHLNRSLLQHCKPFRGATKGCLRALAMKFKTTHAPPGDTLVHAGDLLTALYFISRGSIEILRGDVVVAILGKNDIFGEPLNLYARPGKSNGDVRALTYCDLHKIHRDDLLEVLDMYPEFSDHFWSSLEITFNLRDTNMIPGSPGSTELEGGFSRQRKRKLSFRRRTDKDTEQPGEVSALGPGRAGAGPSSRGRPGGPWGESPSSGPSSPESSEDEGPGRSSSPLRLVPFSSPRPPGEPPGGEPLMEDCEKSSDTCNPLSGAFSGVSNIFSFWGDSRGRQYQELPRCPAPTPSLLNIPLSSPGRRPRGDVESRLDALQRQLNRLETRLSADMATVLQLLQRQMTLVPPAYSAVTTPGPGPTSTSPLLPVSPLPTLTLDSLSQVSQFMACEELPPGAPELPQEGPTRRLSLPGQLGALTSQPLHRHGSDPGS

| SMILES | hERG current change (%, negative = inhibition) at 10uM [%] |
| --- | --- |
| CC1(C)CC(=O)c2cc(C(=O)NC3CCSC3=O)c(=O)n(-c3ccccc3)c2C1 (centres unmarked) | -0.214 |
| CCC(=O)N1CCN(CCN=CC2=C(O)CC(C)(C)CC2=O)CC1 | 7.27 |
| C#CCOCCOCCOCCNc1nc(N2CCN(C(=O)[C@H](Cc3cc4ccccc4[nH]3)n3cc([C@@H](N)C(C)CC)nn3)CC2)nc(N2CCN(C(=O)[C@H](Cc3cc4ccccc4[nH]3)n3cc([C@@H](N)Cc4ccc(O)cc4)nn3)CC2)n1.Cl (some centres unmarked) | 1.23 |
| Cc1c2cnn(CC(=O)NCCCN3CC(C)CC(C)C3)c(=O)c2c(C)n1Cc1ccc(Cl)cc1 (centres unmarked) | -52.6 |
| Cc1ccc([N+](=O)[O-])c(OCCN2CCCCCC2)c1.O=C(O)C(=O)O | -34 |
| CCOc1ccccc1N1CCN(Cc2cnc(-c3ccccc3)[nH]2)CC1 | -40.6 |
| CC1CC(C)CN(CCC(=O)Nc2ccc(Br)cc2)C1.Cl (centres unmarked) | -53.5 |
| CSc1nc(NCCOCCO)c2sc3nc(-c4ccco4)c4c(c3c2n1)CCC4 | -0.753 |
| O=C1CCC(=O)N1OCCOc1ccc(Cl)c2ccccc12 | 7.01 |
| O=C(CCN1C(=O)/C(=C/c2ccccc2Cl)SC1=S)N1CCOCC1 | 20.8 |
| COc1ccccc1-c1nnc(NC(=O)C(C)SC2=NCCS2)s1 (centres unmarked) | -0.0971 |
| Cc1cc(C)c2nc(N3CCC(C(=O)NCc4ccccn4)CC3)sc2c1 | -25.3 |
| COc1cc(S(=O)(=O)n2nc(C)cc2C)c(OC)cc1Cl | -8.58 |
| COc1ccc(C(CNC(=O)c2oc3ccc(C)cc3c2C)N2CCCCC2)cc1 (centres unmarked) | 6.26 |
| COc1ccccc1CNC(=O)CCC(=O)N1CCOc2ccc(Cl)cc21 | -5.43 |
| O=C(Cn1ncc2c3ccccc3n(Cc3ccccc3)c2c1=O)NC1CCCC1 | 10.1 |
| O=C(c1ccccc1NS(=O)(=O)c1ccc2c(c1)OCCO2)N1CCOCC1 | 7.56 |
| CCOC(=O)N1CCC(=NNC(=O)c2ccc(O)cc2)CC1 | 4.27 |
| CC(NC(=O)C1(c2cccs2)CCOCC1)c1ccccc1 (centres unmarked) | 9.67 |
| O=C(CCC(=O)N1CCN(S(=O)(=O)c2cccc(F)c2)CC1)c1cccs1 | -8.66 |
| Cc1ccccc1OCC(=O)N1N=C(C(F)(F)F)CC1(O)C(C)(C)C (centres unmarked) | -22.9 |
| O=C1CCN(C(=O)Nc2ccccc2Cl)N1 | -4.64 |

| SMILES | hERG current change (%, negative = inhibition) at 10uM [%] |
| --- | --- |
| CCOC(=O)C1CCN(Cc2cc(C(C)(C)C)c(O)c(C(C)(C)C)c2)CC1 | -63.1 |
| COc1ccccc1NC(=O)C(C)OC(=O)CSCC(=O)Nc1cc(C)on1 (centres unmarked) | 9.01 |
| COc1ccc(-c2nc(-c3ccccc3)c(-c3cc([N+](=O)[O-])ccc3C)[nH]2)cc1O | 3.31 |
| Cc1onc(-c2ccccc2Cl)c1C(=O)N(Cc1ccccc1)C(C)C | -3.26 |
| CCN(CC)C(=O)C(=O)N/N=C/c1ccc(C(=O)O)cc1 | 9.78 |
| C/C(=N\NC(=O)c1nnn(-c2nonc2N)c1C(C)C)c1ccncc1 | 6.73 |
| Cc1cccc(NS(=O)(=O)c2nnc(NC(=O)C3CCCCC3)s2)c1 | 11.5 |
| O=C(c1ccc(F)cc1)C1CCN(C(=O)Nc2ccc(F)cc2)CC1 | -71.7 |
| O=C(OCCCN=C1NS(=O)(=O)c2ccccc21)c1ccccc1F | -12.4 |
| COc1ccccc1C(=O)Nc1nc2cc3c(cc2s1)OCO3 | 16.2 |
| Cc1nc2c(C(F)(F)F)cccc2c2c1CCS2 | 7.46 |
| O=[N+]([O-])c1ccc(/C=N/N/C(=N/c2ccccn2)c2ccccn2)cc1 | -14.5 |
| CC1=NN(c2nc3ccccc3s2)C(O)(C(F)(F)F)C1 (centres unmarked) | -0.175 |
| NC(=O)c1cnn2c(C(F)(F)F)cc(-c3ccc(F)cc3)nc12 | -37.9 |
| Cc1cccc(/C=C(\C(=O)C(=O)O)c2ccc3ccccc3n2)c1 | 8.23 |
| O=C(Nc1cc(Cl)ccc1Oc1ccccc1)c1ccc(F)cc1 | -14.1 |
| CN(Cc1cn(Cc2ccccc2)nc1-c1ccc2c(c1)OCO2)Cc1nccn1C | -32.7 |
| O=C(NC(=O)c1ccccc1)OCC(F)(F)F | 6.28 |
| Cc1ccc(SCC(=O)NCCc2ccc(F)cc2)cc1 | -0.26 |
| COc1cc(-c2nnc(SCc3c(F)cccc3Cl)o2)cc(OC)c1OC | -7.62 |
| CCn1cc(/C=C(\NC(=O)c2ccccc2F)C(=O)NCCCn2ccnc2)c2ccccc21 | -69 |
| Cc1ccc(C(O)P(=O)(OCCC(C)C)c2ccc(N(C)C)cc2)cc1 (centres unmarked) | -8.02 |

| SMILES | hERG current change (%, negative = inhibition) at 10uM [%] |
| --- | --- |
| COc1cc(S(=O)(=O)N(C)Cc2ccc3c(c2)OCCO3)ccc1NC(C)=O | 0.222 |
| CCCCCOC(=O)C1=C(C)N(C)C(=O)NC1c1cc(Br)c(O)c(OC)c1 (centres unmarked) | -21.7 |
| CCCC(C)NC(=O)CSc1nnc(-c2c[nH]c3ccccc23)o1 (centres unmarked) | -24.4 |
| c1ccc(-n2nnnc2OCCOc2nnnn2-c2ccccc2)cc1 | -1.68 |
| COc1ccc(-c2nc3ncnn3cc2C)cc1F | 9.1 |
| O=C(COC(=O)COc1ccc2ccccc2c1)NCC(F)(F)F | 8.64 |
| O=C(c1cc(COc2cccc(C(F)(F)F)c2)on1)N1CCC(c2ccccc2)CC1 | 6.79 |
| CCc1cc2c(=O)c(-c3cnn(-c4ccccc4)c3)c(C(F)(F)F)oc2c(CN(C)C)c1O | 3.68 |
| COc1ccc(C2(CNC(=O)c3ccc(Br)o3)CCOCC2)cc1 | -6.02 |
| COc1ccc(N(Cc2nnc3n2CCCCC3)C(=O)Nc2ccccc2)cc1 | 22.5 |
| CCC1Oc2ccc(C)cc2N(CC(=O)NCc2ccco2)C1=O (centres unmarked) | 15.1 |
| Cc1ccc(OCCNC(=O)c2cc(=O)[nH]c3ccccc23)cc1 | 28.7 |
| CC(=O)Nc1cccc(OCCCNC(=O)c2cccc3ccccc23)c1 | -9.16 |
| CC1CN(S(=O)(=O)c2ccc(C(=O)Nc3nccs3)cc2)CC(C)O1 (centres unmarked) | 13.3 |
| CC(=O)c1c(C)[nH]c(C(=O)NCc2cccc(Cl)c2)c1C | -9.17 |
| COc1ccc(C(=O)Nc2ccc(N3CCN(C(=O)c4ccccc4C)CC3)cc2)cc1 | 5.5 |
| Cc1cc(C)nc(N2CCC(C(=O)O)CC2)n1 | 0.86 |
| Cc1cc(C)nc(N2CCCC(C(=O)NC(C)C)C2)n1 (centres unmarked) | 2.34 |
| COc1cccc(CN2CCN(Cc3cc(OC)c(OC)cc3[N+](=O)[O-])CC2)c1.O=C(O)C(=O)O | -46.3 |
| CCOC(=O)Cc1csc(NS(=O)(=O)c2cc(Cl)ccc2Cl)n1 | 14.7 |
| COc1ccc([C@@H]2[C@@H]3C(=O)N(C(C)(C)C)C(=O)[C@@H]3[C@]3(Cc4ccccc4)C(=O)N(c4ccc(OC)cc4)C(=O)N23)cc1 | 18.3 |
| CC(C)(C)c1cc(C(=O)NNc2ccc(OC(F)(F)F)cc2)n(Cc2ccccc2)n1 | 19.2 |

| SMILES | hERG current change (%, negative = inhibition) at 10uM [%] |
| --- | --- |
| Cc1c(C(=O)N2CCOCC2)c(S(=O)(=O)Nc2ccc(OC(F)(F)F)cc2)c(C)n1C | 4.79 |
| Cc1cccc(CCNC(=O)C2CCN(S(=O)(=O)N3CCOCC3)CC2)c1 | -6.25 |
| CC(=O)Nc1c(-c2ccccc2)nc2cc(C)ccn12 | 7.74 |
| COc1ccc(CCN(C)C(=O)c2oc3ccccc3c2C)cc1OC | -0.562 |
| O=C(Cn1c(C(F)(F)F)nc2ccccc21)N/N=C/c1ccco1 | 4.75 |
| Cc1nnc(N2CCCC(C(=O)NCc3ccccc3F)C2)c2nn(-c3ccccc3)c(C)c12 (centres unmarked) | -51.2 |
| N#C/C(=C(\O)C(F)(F)F)c1nnc2n1CCCCC2 | 15.8 |
| Cc1ccc(Cn2c(C)c3cnn(CC(=O)NC4CCCC4)c(=O)c3c2C)cc1 | 7.2 |
| O=C(O)CCCCCNC(=O)c1ccccc1 | 8.89 |
| CCOc1ccccc1C(=O)OCC(=O)Nc1ncc(C(F)(F)F)cc1Cl | -10.9 |
| Cc1ccc2nc(-c3ccccn3)c(NC3CCCC3)n2c1 | -16.7 |
| N#CC(c1ccc(O)cc1)c1ncc(C(F)(F)F)cc1Cl (centres unmarked) | -0.101 |
| O=C(NC1CCN(C(=S)Nc2ccc(F)cc2)CC1)C1CCCCC1 | 3.49 |
| COc1cc(OC)cc(C(=O)Nc2nc3ccccc3[nH]2)c1 | 8.2 |
| CCc1nn(CC(=O)N2CC(C)CC(C)C2)c(=O)c2cccn12 (centres unmarked) | 16.7 |
| O=C(COc1ccccc1)NN1C(=O)CSC1=S | 15.7 |
| COC(=O)/C=C(\C)NC(=O)c1ccc(F)cc1 | 4.94 |
| Cc1ccccc1-n1c(SCc2cc(=O)n3ccccc3n2)nc2[nH]ncc2c1=O | -35.2 |
| O=C(CN1C(=O)C2CCCCC2C1=O)Nc1nc2ccc(F)cc2s1 (centres unmarked) | -31 |
| CCNC(=O)N1CCCC(C(=O)c2ccc(-c3ccccc3)cc2)C1 (centres unmarked) | 8.85 |
